Data published in PMC6919601, “Identification of Plasmodium dipeptidyl aminopeptidase allosteric inhibitors by high throughput screening” (PLoS ONE, 2019).
Out of some 110,000 compounds screened, about 230 (0.21%) showed an effect of 50% or more. The list shows a part of the results.

Molecular target: DPAP1 (Plasmodium falciparum, UniProt Q8IIJ9)
Assay: primary screen, percent inhibition; read by cleavage of a fluorogenic dipeptide substrate; higher = more effect of the substance
Design: species or system P. falciparum D10 trophozoite lysates; single well
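Also: 30 min substrate incubation versus DMSO and 10 µM JCP410 controls.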

DPAP1, sequence (Q8IIJ9 whole entry, looked up): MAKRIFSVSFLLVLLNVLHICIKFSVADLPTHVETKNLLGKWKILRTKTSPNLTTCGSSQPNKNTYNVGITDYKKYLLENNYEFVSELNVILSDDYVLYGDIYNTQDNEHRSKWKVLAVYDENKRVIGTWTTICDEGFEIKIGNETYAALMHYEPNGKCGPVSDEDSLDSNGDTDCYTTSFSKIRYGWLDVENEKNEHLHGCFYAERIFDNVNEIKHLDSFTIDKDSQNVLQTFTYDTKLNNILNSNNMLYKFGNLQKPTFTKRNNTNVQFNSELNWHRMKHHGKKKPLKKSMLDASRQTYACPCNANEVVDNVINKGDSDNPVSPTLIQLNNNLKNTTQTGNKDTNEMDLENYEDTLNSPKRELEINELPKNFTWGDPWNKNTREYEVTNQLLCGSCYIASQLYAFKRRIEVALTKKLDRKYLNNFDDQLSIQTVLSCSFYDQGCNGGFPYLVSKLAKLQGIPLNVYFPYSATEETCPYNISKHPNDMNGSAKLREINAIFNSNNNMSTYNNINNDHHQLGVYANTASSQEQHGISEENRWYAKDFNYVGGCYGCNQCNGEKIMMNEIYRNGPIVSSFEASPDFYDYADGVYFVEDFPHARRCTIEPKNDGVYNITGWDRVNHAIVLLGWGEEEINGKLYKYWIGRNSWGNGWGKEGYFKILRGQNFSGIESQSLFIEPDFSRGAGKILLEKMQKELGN

Row | SMILES | % Inhibition @ 10 uM [%]
1 | CCN(CC)S(=O)(=O)c1cc(C(=O)Nc2ccc(Cl)cn2)ccc1OC | -2.26
2 | CSc1nnnn1-c1ccccc1 | -4.08
3 | COc1ccc(-n2c(S)nnc2CN2CCN(C)CC2)cc1 | -0.969
4 | Cc1nc(O)nc(O)c1S(=O)(=O)N1CCN(C(=O)c2cc(-c3ccco3)[nH]n2)CC1 | -1.87
5 | CC1CCC2(CC1)N=C(c1cccc(F)c1)C(=S)N2 (centres unmarked) | 12.4
6 | O=C(NCCCO)c1ccc2snnc2c1 | 1.43
7 | Cc1cc(O)nc2c1cnn2Cc1ccccc1 | -0.45
8 | N#C/C(=C\c1ccc([N+](=O)[O-])cc1)c1nc(-c2ccccc2)cs1 | -0.268
9 | NC(=O)C1CCN(c2ccc(C(F)(F)F)cn2)CC1 | -4.73
10 | CCN1CN=C2SC(CO)(CO)C(=O)N2C1 | 1.37
11 | Cc1oc2c(c(C)cc3oc(=O)c(C)c(C)c32)c1C | -1.15
12 | CCOc1ccc(N2C(=O)CC(N3CCN(Cc4ccccc4)CC3)C2=O)cc1 (centres unmarked) | 4.06
13 | O=S(=O)(Nc1nc2c(s1)CCCC2)c1ccc(Br)cc1 | 2.37
14 | Cc1nnc(SC2CCNCC2)s1 | 2.29
15 | CCO/C(O)=C/C1=Nc2cc(C)c(C)cc2NC(=O)C1 | 2.41
16 | CCC[C@H](NC(=O)C(Cc1c(F)cccc1F)NC(=O)c1ccc(-c2ccccc2Cl)cc1)C(=O)c1nnc(CC)o1 (some centres unmarked) | -5.2
17 | COc1ccc(OC)c(NC(=O)c2ccncc2)c1 | -3.45
18 | COc1ccccc1N1C(=O)c2ccccc2NC1c1cc(Cl)cc2c1OCOC2 (centres unmarked) | -12
19 | CC(Oc1ccccc1F)C(=O)Nc1ccc(S(=O)(=O)N2CCCCC2)cc1 (centres unmarked) | -0.132
20 | C=CCNC(=O)CC(NS(=O)(=O)c1ccc(OC)cc1)c1ccco1 (centres unmarked) | 4.47
21 | CN(C)/C=N/c1c(C#N)cnn1-c1ncnc2sc3c(c12)CCC3 | -1.6
22 | CCN(CC)S(=O)(=O)c1ccc(NS(=O)(=O)c2ccc(NC(C)=O)cc2)cc1 | 2.27
23 | Cc1nc2nc(NC(=O)CC(C)C)nn2c(O)c1Cl | 0.401
24 | COc1ccccc1CC(C)N[C@H]1CCCCNC1=O (some centres unmarked) | 1.57
25 | Cc1ccc(-c2noc(CN3CCC(C)CC3)n2)cc1 | -5.23

Row | SMILES | % Inhibition @ 10 uM [%]
26 | O=C(Nc1ccc(S(=O)(=O)c2ccc(NC(=O)c3ccccc3)cc2)cc1)c1ccccc1 | 2.94
27 | Cc1nc(Oc2ccc3c(C)cc(=O)oc3c2)c2c3c(sc2n1)CCC3 | 0.685
28 | COc1cccc(C2=NOC(C(=O)N3CCN(Cc4ccccc4)CC3)C2)c1OC (centres unmarked) | -0.431
29 | CCOc1ccc(C2NC(=O)N(C)C(C)=C2C(=O)Nc2ccccc2)cc1 (centres unmarked) | -3.69
30 | COc1ccc(-c2noc(CN(C(=O)C34CC5CC(CC(C5)C3)C4)C(C)C)n2)cc1 | -0.352
31 | COc1cc(CNCc2cccnc2)ccc1OCc1ccccc1F | 2.84
32 | CCCOc1ccc2cc(C(=O)O)ccc2c1Cl | -2.6
33 | Cc1ccc(NC(=O)c2sc3nc(N)c(C#N)cc3c2N)c(Br)c1 | 6.65
34 | CCOc1ccc2ccccc2c1/C=C1/NC(=O)N(CC)C1=O | -4.03
35 | CC(=O)c1cc(-c2ccc(F)cc2)n(CC(=O)NC(C)(C)C)c1C | -5.47
36 | Cc1noc2ncnc(N3CCCC(C(=O)NCCN(C)C)C3)c12 (centres unmarked) | 6.45
37 | O=C(COCc1cc(-c2ccc3c(c2)OCO3)on1)NCC1CCCO1 (centres unmarked) | 5.32
38 | CCCNc1nc(SCc2ccc(Cl)cc2)nnc1C | -2.99
39 | Cc1cc(C(F)(F)F)c(C#N)c(SCc2ccccc2)n1 | 2.23
40 | Cc1nn(CC(=O)NC2CCN(Cc3ccccc3)CC2)c(=O)c2cccn12 | -3.1
41 | CC(=O)c1ccc(C(=O)NCCOc2ccccc2)cc1 | -2.85
42 | Cc1ccc(C)c(S(=O)(=O)Nc2ccc(C(=O)NCc3ccco3)cc2)c1 | -1.61
43 | Cc1ccc2oc(=O)c3cnn(CC(=O)NCCN4CCc5ccccc5C4)c3c2c1 | 3.2
44 | Cc1ccc(S(=O)(=O)N2CCCC(C(=O)NCCCN3CCCCC3C)C2)cc1 (centres unmarked) | 5.23
45 | N#Cc1c(N)nc(S)c(C#N)c1-c1cccc([N+](=O)[O-])c1 | 48.8
46 | CC1CCCN(S(=O)(=O)c2cc(C(=O)O)ccc2F)C1 (centres unmarked) | -5.64
47 | O=C(c1ccc(-c2ccccc2)s1)N1CCc2ccccc2C1 | 5.91
48 | Cc1ccc(C(=O)N/C(=C\c2cccc(Br)c2)C(=O)N2CCOCC2)cc1 | 2.69
49 | CCOc1ccccc1NC(=O)CN(c1cc(C)ccc1C)S(C)(=O)=O | -6.77
50 | CC(=O)c1ccc(-n2c(C)ccc2-c2ccccc2)cc1 | -3.14
